Measurements: PMC4336329 (PLoS ONE, 2015)
The campaign covered roughly 310,000 compounds. About 14,000 (4.5%) showed an effect of 50% or more. Effects have a minus sign here. The list shows a part of the results.

The molecules below were run against human ether-à-go-go-related gene (hERG) potassium channel (human, UniProt Q12809) (assay: primary screen, population patch clamp on CHO cells stably expressing hERG).
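Note: peak tail current of the secondary pulse compared with the same well before compound.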

Chain of human ether-à-go-go-related gene (hERG) potassium channel (Q12809 whole entry, looked up): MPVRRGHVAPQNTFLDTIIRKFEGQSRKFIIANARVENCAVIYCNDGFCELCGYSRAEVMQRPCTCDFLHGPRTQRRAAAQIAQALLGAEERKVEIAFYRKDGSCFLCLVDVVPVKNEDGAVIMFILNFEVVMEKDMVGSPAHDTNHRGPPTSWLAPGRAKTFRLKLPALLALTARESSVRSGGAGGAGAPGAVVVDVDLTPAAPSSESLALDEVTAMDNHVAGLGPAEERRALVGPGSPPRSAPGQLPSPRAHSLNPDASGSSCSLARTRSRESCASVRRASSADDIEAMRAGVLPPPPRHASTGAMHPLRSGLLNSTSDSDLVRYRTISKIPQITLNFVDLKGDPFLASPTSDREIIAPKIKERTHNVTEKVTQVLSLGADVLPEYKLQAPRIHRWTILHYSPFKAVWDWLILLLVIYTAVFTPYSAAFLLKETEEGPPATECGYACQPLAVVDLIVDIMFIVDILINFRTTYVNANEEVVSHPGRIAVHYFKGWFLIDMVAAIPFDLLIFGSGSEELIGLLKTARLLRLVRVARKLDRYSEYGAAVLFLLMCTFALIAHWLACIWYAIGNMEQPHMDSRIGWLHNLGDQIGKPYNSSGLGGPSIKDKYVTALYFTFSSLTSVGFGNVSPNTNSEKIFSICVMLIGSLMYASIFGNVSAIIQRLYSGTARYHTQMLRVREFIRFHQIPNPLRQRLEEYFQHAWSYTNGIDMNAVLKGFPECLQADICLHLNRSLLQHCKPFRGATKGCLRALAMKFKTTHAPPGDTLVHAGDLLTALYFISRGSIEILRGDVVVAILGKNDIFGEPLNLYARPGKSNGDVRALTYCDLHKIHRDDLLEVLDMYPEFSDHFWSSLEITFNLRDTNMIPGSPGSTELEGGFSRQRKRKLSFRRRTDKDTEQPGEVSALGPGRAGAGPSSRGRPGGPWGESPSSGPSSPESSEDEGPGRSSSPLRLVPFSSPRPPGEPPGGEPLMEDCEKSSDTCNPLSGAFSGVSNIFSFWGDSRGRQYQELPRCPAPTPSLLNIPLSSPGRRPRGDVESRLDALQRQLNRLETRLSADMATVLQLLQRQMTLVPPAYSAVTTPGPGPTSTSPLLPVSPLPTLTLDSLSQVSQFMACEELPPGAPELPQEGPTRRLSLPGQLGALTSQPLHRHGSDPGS

For CCN(CC(N)=O)S(=O)(=O)c1ccc(Br)cc1, which “hERG current change (%, negative = inhibition) at 10uM” value is on record?
The value was -5.16%.

With CN(C)c1cc[nH]c(=O)c1C#N as the molecule, how does the “hERG current change (%, negative = inhibition) at 10uM” value read?
The value was 10.5%.

How did the “hERG current change (%, negative = inhibition) at 10uM” value turn out when C=CCn1c(SCC(=O)C(C)(C)C)nnc1-c1ccccn1 was run?
Its value is 1.5%.

With CCNc1ccc(S(=O)(=O)N(C)C)cc1NCC(=O)Nc1ccccc1F as the molecule, how does the “hERG current change (%, negative = inhibition) at 10uM” value read?
The value was -32.2%.

With O=C(NCc1ccco1)c1ccc([N+](=O)[O-])o1 as the molecule, how does the “hERG current change (%, negative = inhibition) at 10uM” value read?
Its value is 8.89%.

With C=CCOc1ccn(C)c(=O)n1 as the molecule, how does the “hERG current change (%, negative = inhibition) at 10uM” value read?
Its value is 2.89%.

With O=C(NCCSCc1ccco1)c1ccc(=O)[nH]c1 as the molecule, how does the “hERG current change (%, negative = inhibition) at 10uM” value read?
The value was 5.5%.

How did the “hERG current change (%, negative = inhibition) at 10uM” value turn out when O=C(CCN1C(=O)[C@@H]2Cc3ccccc3CN2C1=O)NCCc1ccccc1 was run?
The value was -36.3%.

COc1ccc(-c2nc(C#N)c(NC(C)c3ccccc3)o2)cc1OC (centres unmarked) was tested. Which “hERG current change (%, negative = inhibition) at 10uM” value did it give?
The value was 4.63%.

For O=C(O)c1cccc([N+](=O)[O-])c1C(=O)Nc1cccc2ccccc12, which “hERG current change (%, negative = inhibition) at 10uM” value is on record?
Its value is 21.9%.

Which “hERG current change (%, negative = inhibition) at 10uM” value does the source give for O=C(NC(=S)NNC(=O)c1ccccc1O)c1cccc([N+](=O)[O-])c1 here?
The value was 26.2%.

With CC(C)=CCCC1(C)C=Cc2c(c(C)cc3c2[nH]c2cc(O)ccc23)O1 (centres unmarked) as the molecule, how does the “hERG current change (%, negative = inhibition) at 10uM” value read?
The value was 16.7%.

With O=C(NCCN1CCCCC1)c1ccc(Cl)nc1Cl as the molecule, how does the “hERG current change (%, negative = inhibition) at 10uM” value read?
The value was 1.18%.

O=Cc1cn(-c2ccccc2)nc1-c1ccccn1 was tested. Which “hERG current change (%, negative = inhibition) at 10uM” value did it give?
Its value is 3.51%.

CCc1ccc(NC(=O)CSc2nnc(Cn3c(=O)sc4ccccc43)n2C)cc1 was tested. Which “hERG current change (%, negative = inhibition) at 10uM” value did it give?
Its value is -2.33%.

Which “hERG current change (%, negative = inhibition) at 10uM” value does the source give for Cn1c(O)c(N=NC(=O)c2cc(-c3cccs3)nc3ccccc23)c2ccccc21 here?
Its value is 24.7%.

How did the “hERG current change (%, negative = inhibition) at 10uM” value turn out when CC(C)c1cccc(C(C)C)c1NC(=O)c1ccccc1 was run?
The value was 26%.

For C=C(C)CSc1nnc(-c2cc(OC)c(OC)c(OC)c2)n1N, which “hERG current change (%, negative = inhibition) at 10uM” value is on record?
Its value is 15.6%.

For Fc1ccc(Nc2c3c(nc4ccccc24)CCC3)cc1, which “hERG current change (%, negative = inhibition) at 10uM” value is on record?
Its value is -64.3%.

For O=C(Nc1cccc(F)c1)C1CCN(c2nnnn2-c2ccccc2)CC1, which “hERG current change (%, negative = inhibition) at 10uM” value is on record?
The value was -11.3%.

How did the “hERG current change (%, negative = inhibition) at 10uM” value turn out when Cc1ccccc1-n1nc2c(c1NC(=O)c1ccc(Br)o1)CSC2 was run?
The value was -7.03%.

CC1(C)CC(=O)C=C(C(=O)N2CCCC(C(=O)c3cccc(C(F)(F)F)c3)C2)O1 (centres unmarked) was tested. Which “hERG current change (%, negative = inhibition) at 10uM” value did it give?
Its value is -25.5%.

Cc1cc(C)cc(NC(=O)CCN2C(=O)c3ccccc3C2=O)c1 was tested. Which “hERG current change (%, negative = inhibition) at 10uM” value did it give?
The value was 17%.

For Cc1ccc(/C(N)=N/OC(=O)c2ccc(C)cc2Cl)cc1, which “hERG current change (%, negative = inhibition) at 10uM” value is on record?
Its value is -20.4%.

How did the “hERG current change (%, negative = inhibition) at 10uM” value turn out when CC(Oc1ccccc1C(N)=O)C(=O)Nc1ccc(S(=O)(=O)N2CCCC2)cc1 (centres unmarked) was run?
The value was -32.3%.

Which “hERG current change (%, negative = inhibition) at 10uM” value does the source give for O=C(COC(=O)CCc1nc2ccccc2c(=O)[nH]1)Nc1ccc(OC(F)(F)F)cc1 here?
The value was -5.93%.

With O=S(=O)(Nc1cccc(S(=O)(=O)N2CCOCC2)c1)c1cccs1 as the molecule, how does the “hERG current change (%, negative = inhibition) at 10uM” value read?
Its value is 15.7%.

For O=C(/C=C/c1cccnc1)c1cc(F)ccc1O, which “hERG current change (%, negative = inhibition) at 10uM” value is on record?
Its value is -5.38%.

For Cc1onc(-c2c(Cl)cccc2Cl)c1C(=O)N1CCOCC1, which “hERG current change (%, negative = inhibition) at 10uM” value is on record?
The value was 12%.

For CCN1CCC(=NNC(=O)CC23CC4CC(CC(C4)C2)C3)CC1, which “hERG current change (%, negative = inhibition) at 10uM” value is on record?
The value was 12%.

How did the “hERG current change (%, negative = inhibition) at 10uM” value turn out when CCC(C)(C)NC(=O)Cn1c(-c2ccccc2)cc(C(C)=O)c1C was run?
The value was -14.1%.

For COc1ccc(S(=O)(=O)N2CCCOC2CNC(=O)C(=O)NCCc2ccco2)cc1OC (centres unmarked), which “hERG current change (%, negative = inhibition) at 10uM” value is on record?
The value was 4.35%.

For COc1ccc(/C=N/n2cncn2)cc1Cn1nc(C)c([N+](=O)[O-])c1C, which “hERG current change (%, negative = inhibition) at 10uM” value is on record?
Its value is -53.6%.

How did the “hERG current change (%, negative = inhibition) at 10uM” value turn out when CCc1ccc2nc(N(CCCN(C)C)C(=O)c3ccc(C(=O)c4ccccc4)cc3)sc2c1.Cl was run?
Its value is -12.5%.

For COc1ccccc1CNC(=O)CN1C(=O)N(C)C2(CCCCC2)C1=O, which “hERG current change (%, negative = inhibition) at 10uM” value is on record?
Its value is 5.91%.

Which “hERG current change (%, negative = inhibition) at 10uM” value does the source give for CCN(CC)C(=O)CN(c1cccc(Br)c1)S(C)(=O)=O here?
The value was 7.03%.

Which “hERG current change (%, negative = inhibition) at 10uM” value does the source give for COC(=O)c1cc(CSc2nc3ccccc3[nH]2)oc1C here?
Its value is 18.3%.

With Cc1occc1C(=O)NCCc1ccc(Cl)cc1 as the molecule, how does the “hERG current change (%, negative = inhibition) at 10uM” value read?
The value was 4.24%.

COc1ccc(-n2c(C)cc(C(=O)CSc3nnc(-c4ccoc4C)n3C)c2C)cc1 was tested. Which “hERG current change (%, negative = inhibition) at 10uM” value did it give?
The value was -31.1%.

Which “hERG current change (%, negative = inhibition) at 10uM” value does the source give for O=C(CCCN1C(=O)c2ccccc2C1=O)Nc1c(C(=O)C2CC2)oc2ccccc12 here?
The value was 16.8%.

For CCOC(=O)CN(C(=O)CSc1nnc(C)n1-c1ccccc1)c1ccccc1, which “hERG current change (%, negative = inhibition) at 10uM” value is on record?
Its value is 6.79%.

How did the “hERG current change (%, negative = inhibition) at 10uM” value turn out when COc1ccc(-c2cn(Cc3ccc(C(=O)c4ccccc4)cc3)nn2)cc1 was run?
Its value is -3.2%.

With CC(=O)Nc1ccc(S(=O)(=O)NNC(=O)C(=O)NNc2ccccn2)cc1 as the molecule, how does the “hERG current change (%, negative = inhibition) at 10uM” value read?
The value was 16.4%.

Which “hERG current change (%, negative = inhibition) at 10uM” value does the source give for CC1CCCN(CC(O)COc2ccc(Cl)cc2)C1.Cl (centres unmarked) here?
Its value is -69.2%.
